First the molecules themselves.
B1: TEV protease; numbered along this chain (parent)
chain: MGESLFKGPRDYNPISSSICHLTNESDGHTTSLYGIGFGPFIITNKHLFRRNNGTLVVQSLHGVFKVKDTTTLQQHLVDGRDMIIIRMPKDFPPFPQKLKFREPQREERICLVTTNFQTKSMSSMVSDTSCTFPSGDGIFWKHWIQTKDGQCGSPLVSTRDGFIVGIHSASNFTNTNNYFTSVPKNFMELLTNQEAQQWVSGWRLNADSVLWGGHKVFMVKPEEPFQPVKEATQL

The other results are listed elsewhere or left out. The full chains were built here from the parent and the listed change. Values near 0.05 are background.

Variants of B1 are the subject of the experiment. Kind of experiment: raw area under fraction-flipped curve 0-4 h after induction (AUC4h, not background-subtracted), DNA-recorder readout of cleavage of the substrate (dimensionless); higher = more cleavage of the substrate by the protease variant. The settings on record: temperature: 34 °C; time window: 0-4 h after rhamnose induction.
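Also: Bxb1 expression induced with 0.2% (w/v) L-rhamnose at OD600 near 0.5, cultures sampled hourly, flipped fraction per protease–substrate barcode pair counted by paired-end Illumina sequencing.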

MGESLFKGPRDYNPISSSICHLTNESDGHTTSLYGIGFGPFIITNKHLFRRNNGTLVVQSLHGVFKVKDTTTLQQHLVDGRDMIIIRMPKDFPPFPQKLKFREPQREERICLVTTNFQTKSMSSMVSDTSCTFPSGDGIFWKHWIQTKDGQCGSPLVSTRDGFIVGIASASNFTNTNNYFTSVPKNFMELLTNQEAQQWVSGWRLNADSVLWGGHKVFMVKPEEPFQPVKEATQL [H168A]: the “area with substrate ENLYFAS” value amounted to 0.0562, the “area with substrate ENLYFCS” value is 0.0589, the “area with substrate ENLYFIS” value was 0.0565 and the “area with substrate ENLYFLS” value came out at 0.0606. In addition, the “area with substrate ENLYFSS” value was found to be 0.0763 and the “area with substrate ENLYFTS” value stood at 0.0592.
Turning to MGESLFKGPRDYNPISSSICHLTNESDGHTTSLYGIGFGPFIITNKHLFRRNNGTLVVQSLHGVFKVKDTTTLQQHLVDGRDMIIIRMPKDFPPFPQKLKFREPQREERICLVTTNFQTKSMSSMVSDTSCTFPSGDGIFWKHWIQTKDGQCGSPLVSTRDGFIVGIISASNFTNTNNYFTSVPKNFMELLTNQEAQQWVSGWRLNADSVLWGGHKVFMVKPEEPFQPVKEATQL [H168I], the “area with substrate ENLYFAS” value worked out at 0.055, the “area with substrate ENLYFCS” value was found to be 0.0547, the “area with substrate ENLYFDS” value came to 0.0673 and the “area with substrate ENLYFES” value worked out at 0.0593. Further, the “area with substrate ENLYFFS” value worked out at 0.0703, the “area with substrate ENLYFGS” value was 0.0788, the “area with substrate ENLYFHS” value stood at 0.0648 and the “area with substrate ENLYFIS” value amounted to 0.0499. For the same variant, the “area with substrate ENLYFKS” value stood at 0.0643, the “area with substrate ENLYFLS” value was 0.0563, the “area with substrate ENLYFMS” value stood at 0.0595 and the “area with substrate ENLYFNS” value was found to be 0.0498. In addition, the “area with substrate ENLYFPS” value was 0.058, the “area with substrate ENLYFRS” value worked out at 0.0549, the “area with substrate ENLYFSS” value was found to be 0.0478 and the “area with substrate ENLYFTS” value came out at 0.0624. The “area with substrate ENLYFVS” value came to 0.0545 and the “area with substrate ENLYFWS” value stood at 0.0759.
For the variant MGESLFKGPRDYNPISSSICHLTNESDGHTTSLYGIGFGPFIITNKHLFRRNNGTLVVQSLHGVFKVKDTTTLQQHLVDGRDMIIIRMPKDFPPFPQKLKFREPQREERICLVTTNFQTKSMSSMVSDTSCTFPSGDGIFWKHWIQTKDGQCGSPLVSTRDGFIVGIESASNFTNTNNYFTSVPKNFMELLTNQEAQQWVSGWRLNADSVLWGGHKVFMVKPEEPFQPVKEATQL [H168E], the “area with substrate ENLYFAS” value amounted to 0.0673, the “area with substrate ENLYFCS” value is 0.0691, the “area with substrate ENLYFES” value is 0.0745 and the “area with substrate ENLYFFS” value was 0.0639. For the same variant, the “area with substrate ENLYFIS” value was determined as 0.0528, the “area with substrate ENLYFKS” value came out at 0.069, the “area with substrate ENLYFMS” value worked out at 0.0459 and the “area with substrate ENLYFNS” value amounted to 0.0569. The “area with substrate ENLYFPS” value is 0.0514, the “area with substrate ENLYFSS” value is 0.0617, the “area with substrate ENLYFTS” value was 0.0808 and the “area with substrate ENLYFWS” value is 0.0536. Besides, the “area with substrate ENLYFYS” value amounted to 0.0513.
For MGESLFKGPRDYNPISSSICHLTNESDGHTTSLYGIGFGPFIITNKHLFRRNNGTLVVQSLHGVFKVKDTTTLQQHLVDGRDMIIIRMPKDFPPFPQKLKFREPQREERICLVTTNFQTKSMSSMVSDTSCTFPSGDGIFWKHWIQTKDGQCGSPLVSTRDGFIVGIFSASNFTNTNNYFTSVPKNFMELLTNQEAQQWVSGWRLNADSVLWGGHKVFMVKPEEPFQPVKEATQL [H168F], the “area with substrate ENLYFAS” value amounted to 0.047, the “area with substrate ENLYFCS” value amounted to 0.0637, the “area with substrate ENLYFES” value came out at 0.0603 and the “area with substrate ENLYFFS” value turned out to be 0.0749. Besides, the “area with substrate ENLYFGS” value was 0.0439, the “area with substrate ENLYFIS” value amounted to 0.0542, the “area with substrate ENLYFKS” value was 0.0576 and the “area with substrate ENLYFLS” value amounted to 0.065. Also, the “area with substrate ENLYFMS” value worked out at 0.0381, the “area with substrate ENLYFNS” value is 0.0564, the “area with substrate ENLYFPS” value was determined as 0.0494 and the “area with substrate ENLYFRS” value was found to be 0.0513. Further, the “area with substrate ENLYFTS” value amounted to 0.0782, the “area with substrate ENLYFVS” value stood at 0.0705, the “area with substrate ENLYFWS” value was 0.0691 and the “area with substrate ENLYFYS” value was 0.0544.
For the variant MGESLFKGPRDYNPISSSICHLTNESDGHTTSLYGIGFGPFIITNKHLFRRNNGTLVVQSLHGVFKVKDTTTLQQHLVDGRDMIIIRMPKDFPPFPQKLKFREPQREERICLVTTNFQTKSMSSMVSDTSCTFPSGDGIFWKHWIQTKDGQCGSPLVSTRDGFIVGIGSASNFTNTNNYFTSVPKNFMELLTNQEAQQWVSGWRLNADSVLWGGHKVFMVKPEEPFQPVKEATQL [H168G], the “area with substrate ENLYFAS” value is 0.0646, the “area with substrate ENLYFCS” value is 0.062, the “area with substrate ENLYFES” value is 0.0507 and the “area with substrate ENLYFFS” value came out at 0.0568. Besides, the “area with substrate ENLYFHS” value amounted to 0.0735, the “area with substrate ENLYFIS” value was 0.0543, the “area with substrate ENLYFKS” value was 0.0592 and the “area with substrate ENLYFLS” value is 0.0652. Besides, the “area with substrate ENLYFNS” value was found to be 0.0641, the “area with substrate ENLYFPS” value worked out at 0.0648, the “area with substrate ENLYFRS” value amounted to 0.0502 and the “area with substrate ENLYFTS” value came to 0.0574. Further, the “area with substrate ENLYFVS” value was determined as 0.0459, the “area with substrate ENLYFWS” value turned out to be 0.0527 and the “area with substrate ENLYFYS” value was 0.0558.
Consider MGESLFKGPRDYNPISSSICHLTNESDGHTTSLYGIGFGPFIITNKHLFRRNNGTLVVQSLHGVFKVKDTTTLQQHLVDGRDMIIIRMPKDFPPFPQKLKFREPQREERICLVTTNFQTKSMSSMVSDTSCTFPSGDGIFWKHWIQTKDGQCGSPLVSTRDGFIVGIKSASNFTNTNNYFTSVPKNFMELLTNQEAQQWVSGWRLNADSVLWGGHKVFMVKPEEPFQPVKEATQL [H168K], for which the “area with substrate ENLYFAS” value was 0.0511, the “area with substrate ENLYFCS” value amounted to 0.0574, the “area with substrate ENLYFDS” value is 0.0672 and the “area with substrate ENLYFES” value worked out at 0.0606. The “area with substrate ENLYFFS” value came out at 0.0628, the “area with substrate ENLYFGS” value worked out at 0.0692, the “area with substrate ENLYFHS” value was determined as 0.0535 and the “area with substrate ENLYFIS” value turned out to be 0.0576. Further, the “area with substrate ENLYFPS” value worked out at 0.0573, the “area with substrate ENLYFRS” value is 0.0519, the “area with substrate ENLYFTS” value worked out at 0.0888 and the “area with substrate ENLYFVS” value turned out to be 0.0822. Besides, the “area with substrate ENLYFWS” value is 0.0621 and the “area with substrate ENLYFYS” value was 0.0594.
For MGESLFKGPRDYNPISSSICHLTNESDGHTTSLYGIGFGPFIITNKHLFRRNNGTLVVQSLHGVFKVKDTTTLQQHLVDGRDMIIIRMPKDFPPFPQKLKFREPQREERICLVTTNFQTKSMSSMVSDTSCTFPSGDGIFWKHWIQTKDGQCGSPLVSTRDGFIVGIDSASNFTNTNNYFTSVPKNFMELLTNQEAQQWVSGWRLNADSVLWGGHKVFMVKPEEPFQPVKEATQL [H168D], the “area with substrate ENLYFAS” value is 0.0592, the “area with substrate ENLYFCS” value worked out at 0.0438, the “area with substrate ENLYFES” value came to 0.0611 and the “area with substrate ENLYFFS” value amounted to 0.0654. In addition, the “area with substrate ENLYFGS” value is 0.0501, the “area with substrate ENLYFIS” value turned out to be 0.0541, the “area with substrate ENLYFLS” value was 0.0547 and the “area with substrate ENLYFMS” value worked out at 0.0622. Besides, the “area with substrate ENLYFNS” value stood at 0.0646, the “area with substrate ENLYFPS” value was 0.0559, the “area with substrate ENLYFRS” value turned out to be 0.0713 and the “area with substrate ENLYFSS” value was 0.0582. For the same variant, the “area with substrate ENLYFTS” value was 0.0594, the “area with substrate ENLYFVS” value was 0.0516, the “area with substrate ENLYFWS” value stood at 0.0605 and the “area with substrate ENLYFYS” value worked out at 0.0492.
On to MGESLFKGPRDYNPISSSICHLTNESDGHTTSLYGIGFGPFIITNKHLFRRNNGTLVVQSLHGVFKVKDTTTLQQHLVDGRDMIIIRMPKDFPPFPQKLKFREPQREERICLVTTNFQTKSMSSMVSDTSCTFPSGDGIFWKHWIQTKDGQCGSPLVSTRDGFIEGIHSASNFTNTNNYFTSVPKNFMELLTNQEAQQWVSGWRLNADSVLWGGHKVFMVKPEEPFQPVKEATQL [V165E], for which the “area with substrate ENLYFAS” value was found to be 0.0601, the “area with substrate ENLYFDS” value was 0.05, the “area with substrate ENLYFES” value turned out to be 0.0437 and the “area with substrate ENLYFFS” value was determined as 0.0581. Besides, the “area with substrate ENLYFHS” value is 0.0559, the “area with substrate ENLYFIS” value came to 0.0438, the “area with substrate ENLYFKS” value turned out to be 0.035 and the “area with substrate ENLYFLS” value was found to be 0.0505. For the same variant, the “area with substrate ENLYFMS” value came out at 0.0561, the “area with substrate ENLYFNS” value was 0.0474, the “area with substrate ENLYFPS” value was 0.0528 and the “area with substrate ENLYFRS” value turned out to be 0.0603. The “area with substrate ENLYFSS” value was 0.0462, the “area with substrate ENLYFTS” value amounted to 0.0468, the “area with substrate ENLYFVS” value was determined as 0.0539 and the “area with substrate ENLYFWS” value came out at 0.0525. Moreover, the “area with substrate ENLYFYS” value was determined as 0.0414.
For the variant MGESLFKGPRDYNPISSSICHLTNESDGHTTSLYGIGFGPFIITNKHLFRRNNGTLVVQSLHGVFKVKDTTTLQQHLVDGRDMIIIRMPKDFPPFPQKLKFREPQREERICLVTTNFQTKSMSSMVSDTSCTFPSGDGIFWKHWIQTKDGQCGSPLVSTRDGFIVGKHSASNFTNTNNYFTSVPKNFMELLTNQEAQQWVSGWRLNADSVLWGGHKVFMVKPEEPFQPVKEATQL [I167K], the “area with substrate ENLYFAS” value stood at 0.06, the “area with substrate ENLYFCS” value worked out at 0.0545, the “area with substrate ENLYFDS” value came to 0.0558 and the “area with substrate ENLYFES” value turned out to be 0.0525. In addition, the “area with substrate ENLYFFS” value was 0.0634, the “area with substrate ENLYFHS” value is 0.0429, the “area with substrate ENLYFIS” value was determined as 0.0499 and the “area with substrate ENLYFKS” value turned out to be 0.0522. For the same variant, the “area with substrate ENLYFMS” value was 0.0508, the “area with substrate ENLYFNS” value is 0.0648, the “area with substrate ENLYFPS” value stood at 0.0541 and the “area with substrate ENLYFRS” value amounted to 0.0559. Further, the “area with substrate ENLYFSS” value is 0.0541, the “area with substrate ENLYFTS” value turned out to be 0.0604 and the “area with substrate ENLYFWS” value stood at 0.0609.

These data come from the supplement of paper PMC12217912.
